Here are results for 86 sequences from the supplement of paper PMC3334620.

The full ranking holds about 33,000 sequences; the median of “E-score (-0.5 to 0.5)” is about -0.056, and the highest 2% start at about 0.38. The list shows a part of the results.

This test has as its target Stb4 (UniProt P50104). Kind of test: PBM E-score (8-mer binding enrichment) (E-score (-0.5 to 0.5)); higher = stronger / more preferred TF binding; most listed sequences are background and not binding sites. Conditions: protein concentration: 200 nM; construct: GST-DNA-binding domain. Here is the method: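 Universal 'all 10-mer' protein binding microarrays (Agilent AMADID 015681) probed with GST-tagged S. cerevisiae TFs (full-length or DBD) made by in vitro transcription/translation (PURExpress), about 100-200 nM. Bound TF was detected with fluorescent anti-GST. Each ungapped 8-mer (which stands for itself and its reverse complement) is scored by the PBM enrichment score (E-score), a modified Wilcoxon-Mann-Whitney statistic from -0.5 to +0.5, computed with the Universal PBM Analysis Suite. Scale: above 0.35 generally sequence-specific binding.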
For ATAAGGGG, the “PBM E-score” value was 0.0144.
To ACTTATCA belongs -0.126.
Under CCTACCGC stands 0.018; under AGGTGTTC, -0.14.
In the case of CAGGGGGG, the “PBM E-score” value was -0.273.
For the sequence AGCTATTG, the “PBM E-score” value was -0.00991.
Under AAGAAGAA stands 0.126; under GCGATATA, -0.198.
Under ATGTCGCA stands -0.259; under CGGAACAC, 0.367; under ATACGCGC, 0.036.
Under AGTCGTTG stands -0.128.
For the sequence CAGAGGGA, the “PBM E-score” value is -0.182.
To TAGCGGAA belongs 0.251; to ACAGCTAG, -0.101.
To ATCCACTG belongs -0.0434; to ACCTTGCT, -0.168.
Under ATATGGAT stands -0.226; under CGGCACGC, 0.247.
For the sequence GGGGATCA, the “PBM E-score” value is -0.134.
To ACTTCGGG belongs 0.407; to CTGTCTTC, 0.00189.
To CAAAGCAC belongs -0.0496; to AAAGTCCC, 0.184; to GATAGAGC, -0.0769.
Under TGCCAAAA stands -0.0796; under AAAGTTCA, 0.093; under ACTTTACG, -0.0299.
GTATTAAC: the “PBM E-score” value turned out to be 0.0461.
For CGTGGGAA, the “PBM E-score” value is -0.22.
Under AAATTATT stands 0.134; under CCCGAATA, 0.397; under AAGTAGAC, -0.038.
To GGGCTTGA belongs -0.364; to CCAATTGC, -0.203; to ACACAGGG, -0.0134.
To CATGGCAA belongs -0.241.
With AACCTGAA, the “PBM E-score” value is -0.171.
To TGCTGTAA belongs -0.174; to TTCAACAA, -0.00037; to CCAACTAG, -0.222.
To GCCGAACA belongs 0.393.
Consider AGGCCGAA, for which the “PBM E-score” value turned out to be 0.274.
To GACATTAC belongs 0.134.
To ATGATGAA belongs 0.0986.
Under CACATCCC stands 0.187.
In the case of GGCGATAA, the “PBM E-score” value was -0.00564.
Take CATAGTGG: the “PBM E-score” value is -0.102.
Turning to AGAAGCAG, the “PBM E-score” value was -0.297.
To GACGAGGA belongs -0.242; to ACAAGGTG, -0.0895; to CTCTGGTA, -0.36.
Under AGCCGTGG stands 0.189.
Under AGATCGTC stands -0.252; under ACCAACTG, -0.143; under TATCGCGA, 0.0412.
Take GACTCAAC: the “PBM E-score” value is -0.0506.
To ATTTTGAA belongs -0.0335; to AGCAGATA, -0.0258.
CTTGCATA: the “PBM E-score” value is -0.146.
Consider GATACAAC, for which the “PBM E-score” value came to 0.0623.
As for ATTTACGG, the “PBM E-score” value turned out to be 0.215.
As for CCACTAAC, the “PBM E-score” value is -0.217.
Under TGCATGAA stands -0.0689; under CACCGTCG, 0.0772.
Under ATTTAGCC stands 0.16; under CCATTTAC, -0.0395.
To AAAGAGGT belongs -0.123; to ACCACTAT, -0.0547.
For the sequence ACCCAGCG, the “PBM E-score” value is -0.0996.
Under AAGGGATT stands -0.205; under ACTGAGGA, -0.0849; under ATATTCTG, -0.0146.
Under TCATACAA stands 0.0319; under CCAGCTCG, -0.0202; under CTATTGAA, -0.0769.
Under CGGAGGCC stands 0.233; under CACTGGCA, -0.23; under AATACGTC, 0.0988.
As to CTTACGCA, the “PBM E-score” value was -0.0829.
Regarding CTAAGGTA, the “PBM E-score” value is -0.0255.
To ATTAGCGA belongs -0.0133; to ATTACATC, 0.0659; to ACTTGTCC, 0.0306.
Under ATTTATGC stands -0.126; under GACAAAAC, -0.0388.
